Measurements from PubChem BioAssay AID624417 (National Center for Advancing Translational Sciences (NCATS), 2012).
Among all 410,000 compounds or so, about 6,400 (1.6%) were called active. The inconclusive results got no clear call from the source; some entries with a clear call stand among them for comparison. The call rests on the fitted dose curve; in most records, active means well fitted inhibition curve with a large enough effect; inconclusive means small, poorly fitted or top-dose-only effect; inactive means no such curve, though single readings can be large or run the other way. Potencies beside an inconclusive call are fits to weak or partial responses and may not hold up.

Molecular target: Glucagon-like peptide 1 receptor (Homo sapiens) (UniProt P43220)
Assay: qHTS of GLP-1 Receptor Inverse Agonists (Inhibition Mode); further: nearly all actives have a fitted effect of over 55% in size
Settings: HEK293 GLP-1R CRE-luciferase, luminescence, 24 h, GLP-1R form is constitutively active; activity change, negative = inhibition: at 38.3 µM (top of the series) unless noted
Outline: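 Luminescence readout: a drop in cAMP-driven luciferase signal flags inverse agonism at a constitutively active GLP-1R stably expressed in HEK293. Compound exposure lasted 24 hr at 37 deg C, 5% CO2.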
On the % scale 0 is the no-effect control and ±100 the full control effect; potency means the concentration at half of the fitted maximal effect; tags describe the fitted curve by direction and shape.

Sequence of UniProt P43220 (P43220 whole entry, looked up): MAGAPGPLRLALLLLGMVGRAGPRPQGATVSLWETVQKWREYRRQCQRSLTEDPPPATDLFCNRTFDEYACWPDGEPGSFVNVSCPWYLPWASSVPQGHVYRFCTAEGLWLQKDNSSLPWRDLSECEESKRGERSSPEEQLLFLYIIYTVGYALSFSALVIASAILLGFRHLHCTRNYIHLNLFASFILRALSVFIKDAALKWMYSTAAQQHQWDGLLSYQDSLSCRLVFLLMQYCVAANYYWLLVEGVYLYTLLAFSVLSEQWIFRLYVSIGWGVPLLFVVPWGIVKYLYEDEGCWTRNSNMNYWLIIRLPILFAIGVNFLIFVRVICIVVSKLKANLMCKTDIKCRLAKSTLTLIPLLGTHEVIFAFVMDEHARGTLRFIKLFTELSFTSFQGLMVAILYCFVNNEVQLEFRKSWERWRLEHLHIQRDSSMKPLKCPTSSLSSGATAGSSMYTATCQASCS

Activity change, negative = inhibition, inactive:
O=c1cc(/N=C/c2coc3c(ccc4ccccc43)c2=O)[nH]c(=S)[nH]1 7.91%
Cc1ccc(NC(=O)Cn2c(/C=C/c3ccccc3)nc3ccccc32)cc1C 9.51%
CCOC(=O)c1c(C)[nH]c(C)c1S(=O)(=O)NCC(=O)N1CCN(c2ccccc2OC)CC1 -7.74%
O=C(Nc1ccc(C(=O)N2CCCCC2)cc1)C1CC1 6.02%
COc1ccc(-c2cc(-c3ccccc3)nc(N3CCCC3)n2)cc1OC 19.6%
CC1=CC(c2ccccc2)n2nc(N3C(=O)C4CC=CCC4C3=O)nc2N1 (stereo not given) -0.597%
CCN(C(=O)Cn1c(Cl)nc2c1c(=O)n(C)c(=O)n2C)C1CCCCC1 -10.5%
Brc1ccc(NCc2cccc3ccccc23)nc1 -18.6%
O=c1c(=O)n(O)c2ccccc2n1O 6.76%
COc1ccc(CCC(=O)Nc2cnc3ccccc3c2)cc1 -0.322%
COCCNC(=O)CN(C(=O)c1ccc(N2CCCC2)nc1)c1ccc(Cl)cc1 6.18%
CCOc1ccc(OCCN2CCCCC2)cc1 1.71%
CC(=O)c1cccc(NC(=O)N(c2ccccc2)c2ccccc2)c1 -25.3%
Clc1ccc(Cl)c(-c2ccc(/C=N/c3ncn[nH]3)o2)c1 -4.09%
CCOC(=O)c1cc(OC(=O)c2ccccc2C)n(-c2ccccc2)n1 0.0527%

Potency, active:
CC(=O)n1cc(N(C(=O)CCl)c2ccccc2)c2ccccc21 3.55 µM

Potency, inconclusive:
O=C(O)c1cccc(N/N=C/c2cccs2)c1 6.31 µM [inhibitor, partial curve, poor fit]
COc1ccc(OC)c(S(=O)(=O)NCCc2csc(-c3cccc(F)c3)n2)c1 8.91 µM [inhibitor, partial curve, poor fit]
Cc1ccc(SCCC(=O)NCCSCc2ccccc2C)cc1 28.2 µM [inhibitor, single point]
Cc1cccc(NC(=O)CSCC(=O)NCc2cccc(C(F)(F)F)c2)c1 28.2 µM [inhibitor, single point]
CNC(=S)N/N=C(\C)c1ccc(Cl)c(Cl)c1 12.6 µM [inhibitor, single point]
COc1ccc(NC(=O)n2ncc3c(C)cccc32)cc1 8.91 µM [inhibitor, single point]
C/C(=N/NC(=O)c1ccc(C)nc1)c1ccc2c(c1)CCCC2 11.2 µM [inhibitor, partial curve, poor fit]
N#CC1=C2SCN(Cc3ccco3)CN2C(=O)CC1c1cccc2ccccc12 (stereo not given) 28.2 µM [inhibitor, single point]
COc1ccccc1N1CCN(C(=O)c2ccc(Cl)c(S(=O)(=O)NCc3ccco3)c2)CC1 2.82 µM [inhibitor, full curve]
Cc1ccc(/C=C(\C#N)c2nn(-c3ccccc3)c(N)c2C#N)cc1 15.8 µM [inhibitor, single point]
CCOC(=O)[C@]12CCC=C1N(Cc1ccccc1)C(=O)[C@H](CC(=O)NCCCCc1ccccc1)C2 20 µM [inhibitor, single point]
CCN(C(=O)COC(=O)c1ccc(OCc2c(C)noc2C)cc1)c1ccccc1 2 µM [inhibitor, full curve, poor fit]
CCCOc1ccc(OCCOCCN2CCc3ccccc3C2)cc1 22.4 µM [inhibitor, single point]
COc1ccc(Nc2nccc(-c3cccc(N)c3)n2)cc1 10 µM [inhibitor, partial curve, poor fit]
CCCc1ccc2oc(C(=O)N3CCN(c4cnccn4)CC3)c(C)c2c1 14.1 µM [inhibitor, partial curve, poor fit]
Cc1cc(NC(=O)CSc2nnc(-c3ccc(Br)o3)n2Cc2ccccc2)no1 2.24 µM [inhibitor, full curve]
O=C(CN1CCSc2ccccc21)N1CCN(c2ccc(F)cc2)CC1 17.8 µM [inhibitor, partial curve, poor fit]
CCCN(Cc1cccs1)C(=O)Nc1cc(OC)ccc1OC 3.16 µM [inhibitor, single point]
Cc1cccc(N2CCN(C(=O)c3cc(C)oc3C)CC2C)c1 (stereo not given) 28.2 µM [inhibitor, single point]
O=C(Nc1ccc(Cl)cc1)Nc1ccccc1C(=O)O 10 µM [inhibitor, partial curve, poor fit]
CCc1ccc(C(c2c(C)nn(-c3ccccc3)c2N)c2c(C)nn(-c3ccccc3)c2N)cc1 11.2 µM [inhibitor, partial curve, poor fit]
Cc1ccc(CNc2nc3cc(-c4ccccc4C)sc3c(=O)n2C)c(C)c1 1.26 µM [inhibitor, full curve, poor fit]
CC(C)c1ccc(/C=N/NC(=O)c2nnn(-c3nonc3N)c2CSC2=NCCS2)cc1 5.62 µM [inhibitor, full curve, poor fit]
Cc1ccc(N(Cc2cc(=O)[nH]c3ccccc23)C(=O)CCl)cc1 17.8 µM [inhibitor, single point]
CCN(CCCNC(=O)C1c2ccccc2C(=O)N(CCOC)C1c1ccc(F)cc1)Cc1ccccc1 (stereo not given) 10 µM [inhibitor, partial curve, poor fit]
Clc1ccc(-c2cc3nc(NCc4cccc(Cl)c4)ccn3n2)cc1 28.2 µM [inhibitor, single point]
CCn1c(SC(C)C(=O)NCC2CCCO2)nc2scc(-c3ccccc3)c2c1=O (stereo not given) 28.2 µM [inhibitor, single point]
CCCc1nc2ccccc2c(C(=O)OCC(=O)Nc2ccc(S(=O)(=O)N3CCOCC3)cc2)c1CC 28.2 µM [inhibitor, single point]
Cc1nn(-c2ccccc2)cc1C(=S)Nc1ccccc1 28.2 µM [inhibitor, partial curve, poor fit]
CN(C(=O)COC(=O)c1cc(S(=O)(=O)N2CCCCC2)ccc1Cl)c1ccccc1 28.2 µM [inhibitor, single point]
O=C(CNc1cccc([N+](=O)[O-])c1)NCCCc1ccccc1 0.631 µM [inhibitor, full curve, poor fit]
CCc1cccc(C)c1NC(=S)N(CCN(C)C)Cc1cccs1 28.2 µM [inhibitor, single point]
COc1ccc(Cn2ccc3nc(C)c(C(=O)NCc4cccc(OC)c4)cc3c2=O)cc1 2.24 µM [inhibitor, full curve, poor fit]
C/C(CC(=O)Nc1ccc(OCc2ccccc2)cc1)=N\NC(=O)C(=O)Nc1ccccc1C 11.2 µM [inhibitor, partial curve, poor fit]
CC(C)(C)NC(=O)C(c1ccncc1)N(Cc1cccs1)C(=O)Cn1nnc(-c2cccs2)n1 (stereo not given) 11.2 µM [inhibitor, partial curve, poor fit]
CC(NCCC1(Cc2ccccc2Cl)CCOC(C)(C)C1)c1cccs1 (stereo not given) 8.91 µM [inhibitor, partial curve, poor fit]
CC(C)Oc1ccc(C(=O)Nc2nnc(SCC(=O)N3CCOCC3)s2)cc1 2 µM [inhibitor, full curve, poor fit]
O=C(/C=C\c1cccs1)c1c(O)ccc2ccc(=O)oc12 28.2 µM [inhibitor, single point]
COC(=O)[C@H](Cc1ccccc1)NC(=O)c1cc(COc2c(F)cccc2F)on1 15.8 µM [inhibitor, single point]
COc1ccc(NC2CCCN(C(=O)CCc3cccc(Cl)c3)C2)cc1 (stereo not given) 11.2 µM [inhibitor, partial curve, poor fit]
COc1cc([N+](=O)[O-])cc(/C=N/NC(=O)Cn2nc(C)cc2C)c1O 15.8 µM [inhibitor, single point]
C/C(=N\Nc1ccc([N+](=O)[O-])cc1)c1ccc(N)cc1 3.98 µM [inhibitor, full curve, poor fit]
CCOc1ccc(CNC(=O)CCCc2cn(C)c3ccccc23)cc1OC 1 µM [inhibitor, full curve]
CN(CC(=O)NCCc1ccc(S(N)(=O)=O)cc1)CC(=O)Nc1ccc(Cl)c(C(F)(F)F)c1 8.91 µM [inhibitor, partial curve, poor fit]
O=C([C@H](Cc1ccccc1)NS(=O)(=O)c1ccc(Cl)cc1)N1CC[C@@]2(O)CCCC[C@H]2C1 28.2 µM [inhibitor, single point]
COCCN(Cc1nc(-c2ccc(C(F)(F)F)cc2)no1)C(C)C 11.2 µM [inhibitor, single point]
CCCCCCCCNS(=O)(=O)CCNCc1ccc(OC)cc1 10 µM [inhibitor, single point]
O=C(Nc1ccncc1)c1cn(-c2ccccc2)nc1-c1cccs1 12.6 µM [inhibitor, single point]
CCOc1ccccc1NC(=O)NCCc1c[nH]c2ccccc12 12.6 µM [inhibitor, single point]
